# From PubChem BioAssay AID686979 (National Center for Advancing Translational Sciences (NCATS), 2013)
# The campaign covered roughly 420,000 compounds. About 50,000 (12%) were called active. The inconclusive results got no clear call from the source; some entries with a clear call stand among them for comparison. Calls follow the shape of the dose curve; as a rule, active = well fitted inhibition curve with a large enough effect; inconclusive = small, poorly fitted or top-dose-only effect; inactive = flat fitted curve, though single readings scatter. No potency is given beside an inconclusive call; the fits are too rough.
# Assay: qHTS for Inhibitors of human tyrosyl-DNA phosphodiesterase 1 (TDP1): qHTS in cells in presence of CPT; also: nearly all actives have a fitted effect of over 55% in size
# Conditions: chicken DT40 Tdp1-/-;hTDP1 cells + 20 nM CPT, ATP luminescence, 48 h; activity change, negative = growth inhibition: at 46.2 µM (top of the series) unless noted
# Summary of the method: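 Chicken DT40 Tdp1-/- cells stably complemented with human TDP1 were seeded at 400 cells/well in medium containing 20 nM camptothecin, exposed to pin-transferred compounds, and grown at 37 °C for at least 48 hr. Viability was read as ATP luminescence.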
# % is scaled to controls: 0 for no effect and ±100 for the full control effect; potency is read from the fitted curve at half-maximal effect; tags tell the direction and shape of the fitted curve.
SMILES,Potency,"activity change, negative = growth inhibition"
O=C(CSc1nnc(-c2ccccc2)n1C1CCCCC1)Nc1ccc(S(=O)(=O)Nc2ccccn2)cc1,"inconclusive [inhibitor, single point]",–
C/C(=N\NC(=O)c1ccc(CN(C)S(=O)(=O)c2ccc(C)cc2)cc1)c1ccc(OC(F)F)cc1,"inconclusive [inhibitor, partial curve]",–
COc1ccc(-c2cn3nc(N4CCCC(C(=O)Nc5ccc(C)c(C)c5)C4)sc3n2)cc1 (stereo not drawn),"inconclusive [inhibitor, partial curve]",–
Cc1nn(-c2ccccc2)nc1C(=O)Nc1cccc(C(=O)NC2CC2)c1,"inconclusive [inhibitor, single point]",–
CC(=O)OC(C)(C)/C=C/C(=O)[C@](C)(O)C1[C@H](O)C[C@@]2(C)C3CC=C4C(C=C(O[C@@H]5O[C@H](CO)[C@@H](O)[C@H](O)[C@H]5O)C(=O)C4(C)C)[C@]3(C)C(=O)C[C@]12C (stereo partly drawn),active: 1.64 µM,–
Nc1ccc(C(=O)Nc2ccc3nc(-c4ccncc4)[nH]c3c2)cc1,"inconclusive [inhibitor, single point]",–
COc1ccc(CN2CCN(C(=O)C3CCC(CNS(=O)(=O)c4ccccc4)CC3)CC2)c(OC)c1OC (stereo not drawn),"inconclusive [inhibitor, single point]",–
COc1ccc2nc(Nc3nc4cc5c(cc4s3)OCO5)sc2c1,"inconclusive [inhibitor, single point]",–
CN(C)c1ccc(-c2ccnc3c2CC(C)(C(=O)Nc2ccc(Cl)cc2)O3)cc1 (stereo not drawn),"inconclusive [inhibitor, single point]",–
Cc1ccc(-c2nnc(SCC(=O)N/N=C/c3ccc(C)s3)n2-c2ccc(C)cc2)cc1,"inconclusive [inhibitor, single point]",–
COc1ccccc1NS(=O)(=O)c1ccc(Cl)c(NC(=S)NC(=O)C2CCCC2)c1,active: 23.1 µM,–
COc1ccc(OC)c(NC(=O)C2CCC(CNc3c(N4CCC(C)CC4)c(=O)c3=O)CC2)c1 (stereo not drawn),"inconclusive [inhibitor, single point]",–
CCOC(=O)C1(C)CCN1C(=O)c1ccc(C(F)(F)F)cc1 (stereo not drawn),inactive,–
CC(C)[C@H]1C(=O)Nc2ccccc2N1C(=O)N[C@@H](Cc1ccccc1)C(=O)N[C@H](C(=O)O)c1ccccc1,inactive,–
COc1ccc(C(=O)NNC(=O)c2ccc(C(C)(C)C)cc2)cc1,inactive,–
CNc1ccccc1C(=O)OC(C)C(=O)Nc1ccc(Cl)cn1 (stereo not drawn),"inconclusive [inhibitor, single point]",–
CN(C)c1cccc(NC(=O)c2cccc3c(-c4ccc(F)c(F)c4)coc23)c1,"inconclusive [inhibitor, single point]",–
Cc1ccc(NC(=O)CSc2nc(=O)n(CCCN3CCOCC3)c3c2CCCC3)c(C)c1,inactive,–
CC(NC(=S)NCc1ccc(F)cc1)C12CC3CC(CC(C3)C1)C2 (stereo not drawn),"inconclusive [inhibitor, single point]",–
Cc1ccc(S(=O)(=O)Cc2cc(F)c([N+](=O)[O-])cc2[N+](=O)[O-])cc1,active: 3.66 µM,–
Cc1cc(Oc2ccc(Br)cc2)nc(SCC(=O)c2ccccc2)n1,active: 23.1 µM,–
O=C(/C=C/Nc1ccc(Nc2ccccc2)cc1)c1cccs1,"inconclusive [inhibitor, single point]",–
Cc1ccc(CNC(=O)COC(=O)c2ccc(S(=O)(=O)NCc3ccco3)cc2)cc1,inactive,–

SMILES,Potency,"activity change, negative = growth inhibition"
C[C@H](CO)N1C[C@H](C)[C@@H](CN(C)Cc2ccc3c(c2)OCO3)Oc2cc(Br)ccc2S1(=O)=O,active: 20.6 µM,–
CC(C)=CCN1CCN(Cc2c[nH]c3ccccc23)CC1CCO (stereo not drawn),"inconclusive [inhibitor, single point]",–
CCN1CCN(c2ccc(S(=O)(=O)N3CCOCC3)cc2NC(=O)COc2ccc(F)cc2Cl)CC1,"inconclusive [inhibitor, single point]",–
COC(=O)c1c(SCC(=O)Nc2cc(C)cc(C)c2)[nH]c2ccccc2c1=O,active: 23.1 µM,–
CCCC(=O)Nc1ccc2c(c1)nc(CN1CCN(C(=O)OCC)CC1)n2CC,active: 3.66 µM,–
Cc1ccc(C(=O)C(C)Oc2cccc(NC(=O)c3ccco3)c2)cc1 (stereo not drawn),"inconclusive [inhibitor, single point]",–
O=C(Oc1cccnc1)c1ccc([N+](=O)[O-])cc1,inactive,–
CCOC(=O)CCC(=O)Nc1ccccc1C(N)=O,inactive,–
CC1Cc2cc(S(=O)(=O)NCCC(=O)NCc3ccc(F)cc3)ccc2N1C(=O)C1CC1 (stereo not drawn),"inconclusive [inhibitor, single point]",–
Cc1c(N=C2NN=C(c3ccc(Cl)cc3)CS2)c(=O)n(-c2ccccc2)n1C,"inconclusive [inhibitor, single point]",–
COc1ccc(CN(C(=O)/C=C/C(=O)c2ccc(OC)cc2O)C(C(=O)NC2CCCCC2)c2ccncc2)cc1 (stereo not drawn),"inconclusive [inhibitor, single point]",–
CCOc1ccc(C(C)(C)C)cc1S(=O)(=O)n1nc(C)cc1C,–,inconclusive: -36.3% [inhibitor]
Cc1ccccc1Cn1c([N+](=O)[O-])cnc1C,inactive,–
N#Cc1ccc(Nc2nc(-c3ccccc3)cs2)cc1,"inconclusive [inhibitor, single point]",–
O=C(CSc1nc2ccccc2[nH]1)N1CCN(c2ccccc2)CC1,inactive,–
Cn1cc(-c2csc(C(O)c3ccc(F)cc3)n2)cn1 (stereo not drawn),"inconclusive [inhibitor, single point]",–
O=C(Cc1ccccc1)NCC(=O)Nc1cc(Cl)ccc1Cl,"inconclusive [inhibitor, single point]",–
O=C(NCc1cccc(Cl)c1)c1cc(COc2ccc3ncccc3c2)on1,active: 16.4 µM,–
Cc1nn(C)c(Cl)c1NC(=O)OCc1ccc(F)cc1,"inconclusive [inhibitor, partial curve, poor fit]",–
CN=C1N[C@H](c2ccccc2)N(c2ccccc2)S1,"inconclusive [inhibitor, partial curve, poor fit]",–
O=C(C1CCCN(S(=O)(=O)c2cccc3nsnc23)C1)N1CCc2ccccc21 (stereo not drawn),"inconclusive [inhibitor, single point]",–
COc1ccc(-c2nc(CN3CCN(Cc4cccc(Cl)c4)CC3)c(C)o2)cc1,"inconclusive [inhibitor, single point]",–
COc1ccc(NS(=O)(=O)c2cc([N+](=O)[O-])ccc2N/N=C\c2c(C)[nH]c3ccccc23)cc1,active: 16.4 µM,–

SMILES,Potency,"activity change, negative = growth inhibition"
COc1cccc(Cn2c(=O)c(-c3cc(F)cc(F)c3)nc3cncnc32)c1,inactive,–
Cc1ccc(NC(=O)CO/N=C(\N)c2nonc2N)cc1C,inactive,–
Cc1cc2nc(-c3ccc(SCC(=O)Nc4ccc5c(c4)OCCO5)nc3)[nH]c2cc1C,active: 23.1 µM,–
Cc1ccc(C(=O)N(CC(=O)NC2CCCC2)c2ccccc2C)s1,"inconclusive [inhibitor, single point]",–
COc1cccc(-c2nn(C)c3sc(C(=O)NCCc4ccc(Cl)cc4)cc23)c1,"inconclusive [inhibitor, single point]",–
COc1cc(/C=C/C(=O)c2ccc([N+](=O)[O-])o2)ccc1O,active: 0.92 µM,–
COC(=O)c1cn(C(=O)c2ccc(C)c(C)c2)c2ccccc12,"inconclusive [inhibitor, single point]",–
COC(=O)c1cccc(Nc2nc(-c3ccncc3)nc3ccccc23)c1,"inconclusive [inhibitor, full curve, poor fit]",–
Cc1cc(S(=O)(=O)Nc2ccc(-c3ccc(N4CCCCC4)nn3)cc2)c(C)cc1Cl,active: 13 µM,–
CCCOc1ccc(CCC(=O)N/N=C/c2ccncc2)cc1,active: 25.9 µM,–
COc1ccc(S(=O)(=O)N(C)C)cc1NC(=O)COC(=O)c1n[nH]c2ccccc12,"inconclusive [inhibitor, single point]",–
Cc1nc2c(sc3nc4c(cc32)COC(C)(C)C4)c(=O)n1CC(=O)NCc1ccco1,active: 3.26 µM,–
CCOc1ccc(NC(=O)CSc2nnc(-c3ccccc3Cl)n2Cc2ccco2)cc1,active: 20.6 µM,–
CCC(OC(=O)CCc1nc2ccccc2[nH]c1=O)C(=O)c1ccccc1 (stereo not drawn),"inconclusive [inhibitor, partial curve]",–
O=C1C(Nc2ccc(O)cc2)=C/C(=N/S(=O)(=O)c2cccs2)c2ccccc21,active: 1.16 µM,–
O=C(c1c[nH]c(C(=O)C(Cl)(Cl)Cl)c1)c1c(F)cccc1F,"inconclusive [inhibitor, single point]",–
O=CN1CCN(C(C(=O)NC2CCCC2)c2cc3c(cc2[N+](=O)[O-])OCO3)CC1 (stereo not drawn),inactive,–
O=c1c2ccccc2c(C=Nc2ccc(Cl)cn2)c(O)n1-c1cc(Cl)ccc1N1CCOCC1,"inconclusive [inhibitor, full curve]",–
COC(=O)N/N=C/c1ccc(-c2ccccc2Cl)o1,inactive,–
Cn1c(=O)c(C(=O)NCc2ccc(F)cc2)c(O)c2ccccc21,"inconclusive [inhibitor, single point]",–
Cc1ccc(O)c(Cc2cc(C)cc(Cc3cc(C)ccc3O)c2O)c1,"inconclusive [inhibitor, single point]",–
CCCNC(=O)C1(C)CCCN(Cc2ccc(-c3ccccc3)o2)C1 (stereo not drawn),active: 23.1 µM,–
